Hit rate of the full screen: of about 380,000 compounds, about 1,300 (0.34%) were called active. Inconclusive means that the source gave no clear call. Such entries were picked first, then a sample of the others.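 The calls were made as follows: active = drop in luminescence signal, shown as inhibition above about 50% in the replicate tests (limit read from the data, passing the limit was not always enough); inconclusive = probably only some replicates passing the limit; inactive = the rest.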
test system: Drosophila bursicon receptor LGR2 (rickets); assay: LGR2 cAMP reporter signal reduction – cell-based, HEK293, CRE-luciferase reporter, bursicon stimulation, primary screen (AID 720647); conditions: bursicon-stimulated, 4 h, at 9.99 µM, stronger effect = higher value;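 also: agonist challenge used bursicon conditioned medium at about half maximal strength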

Compound | inhibition
COC(=O)[C@H]1[C@H](CO)[C@H]2Cn3c(ccc(C4=CCCCC4)c3=O)[C@@H]1N2C(=O)Cc1ccccn1 | inactive: -8.86%
COC(=O)[C@H]1[C@H](CO)[C@H]2Cn3c(ccc(-c4ccccc4F)c3=O)[C@@H]1N2Cc1ccccc1 | inactive: 3.39%
COc1ccccc1-n1c(O)c(/C=C2\C=Nc3ccccc32)c(=O)[nH]c1=O | inconclusive: 53.3%
C[C@]12CC[C@H](O)C[C@H]1CC[C@@H]1[C@@H]2C[C@@H](O)[C@]2(C)[C@@H](C3=CC(=O)OC3)CC[C@]12O | active: 80.1%
O=C(Cc1cc(=O)oc2cc(O)ccc12)NN=Cc1ccc(N(CCCl)CCCl)cc1 | inactive: 26.4%
Cc1ccc2c(c1)C1CN(C)CCC1N2C(=O)c1cn(-c2ccccc2)nc1-c1ccccc1 (stereo not given) | inconclusive: 61.1%
COC(=O)C1=C(C(=O)OC)C2OC1c1cc3ccccc3cc12 | inconclusive: 58.8%
CCOC(=O)[C@]12Cc3ccccc3[C@H]1N(C(C)C)C(=O)c1ccccc12 | inconclusive: 52.8%
CSCCC(c1nnnn1-c1c(C)cccc1C)N1CCC2(CC1)C(=O)NCN2c1ccccc1 (stereo not given) | inconclusive: -3.79%
NC(=O)c1cn(C2OC(CO)C(O)C2O)c2ncnc(N)c12 (stereo not given) | active: 71.4%
O=C(c1ccccc1)C(CN1CCCC1)c1ccccc1 (stereo not given) | inconclusive: 57.2%
CCC(C)(O)C(=O)OC1C(=O)OC2CC3C(C)=CC(=O)C(O)C3(C)C3C4(O)OCC23C1C(C)C4O (stereo not given) | active: 101%
O=[N+]([O-])c1ccc(N(CCO)CCO)c2c1no[n+]2[O-] | inconclusive: 71.4%
CC1OC(OC2C(O)CC(OC3C(O)CC(OC4CCC5(C)C(CCC6C5CCC5(C)C(C7=CC(=O)OC7)C(O)CC65O)C4)OC3C)OC2C)CC(O)C1O (stereo not given) | active: 86.5%
COC(=O)[C@H]1[C@H](CO)[C@H]2Cn3c(ccc(-c4ccccc4)c3=O)[C@@H]1N2S(=O)(=O)c1ccccc1C | inactive: -12.5%
COC(=O)C1=C(c2ccc(OCc3ccccc3)cc2)C[C@@H]2CC[C@H]1N2C(=O)NCc1ccccc1 | inactive: 9.68%
CCOC(=O)[C@]12Cc3cc(OC)ccc3[C@H]1N(C)C(=O)c1cc(OC)ccc12 | inconclusive: 52%
C[C@]12CC[C@H](O)C[C@H]1CC[C@@H]1C2CC[C@]2(C)[C@@H](C3=CC(=O)OC3)[C@@H](O)C[C@]12O (stereo not given in full) | active: 75.1%
CCOC(=O)[C@]12Cc3cc(Cl)ccc3[C@H]1N(Cc1ccccc1)C(=O)c1cc(OC)ccc12 | inconclusive: 44.8%
NC(Cc1ccc(Cl)cc1)c1csc(Nc2ncccn2)n1 (stereo not given) | inconclusive: 53.2%

Source: PubChem BioAssay AID720647 (Broad Institute, 2013)
